# Measurements as given in the BET-seq Pho4 binding data (Le et al. 2018).
# Some of the results follow. The energies were worked out here from pooled read counts, against the library average; single values are noisy.
# Molecular target: T1, Pho4 (S. cerevisiae) (UniProt P07270)
# T1 sequence: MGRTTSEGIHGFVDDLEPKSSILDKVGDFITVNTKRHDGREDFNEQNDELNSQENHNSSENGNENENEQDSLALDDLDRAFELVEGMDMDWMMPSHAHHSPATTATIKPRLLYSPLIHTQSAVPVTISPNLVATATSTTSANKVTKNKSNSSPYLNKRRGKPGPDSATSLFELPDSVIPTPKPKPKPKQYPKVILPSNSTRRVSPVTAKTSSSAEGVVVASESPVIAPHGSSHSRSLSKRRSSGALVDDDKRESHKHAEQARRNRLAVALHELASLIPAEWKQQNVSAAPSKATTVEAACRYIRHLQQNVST
# Experiment: relative binding free energy (BET-seq); higher = weaker binding
# Details: reference: library average
row,Sequence,relative binding free energy [kcal/mol]
1,TACGGCACGTGGAATT,0.12
2,GTATTCACGTGATCGG,0.29
3,TGGTCCACGTGGAATT,0.15
4,TTGGACACGTGAGGGC,0.15
5,AGAGTCACGTGATATT,0.21
6,GGTGTCACGTGGAATA,0.17
7,AGGTGCACGTGTAATA,0.11
8,ATGGACACGTGGGCTA,-0.2
9,TGCGACACGTGGGTTT,-0.08
10,TATTGCACGTGCTTGG,0.02
11,CGGGGCACGTGGTATA,-0.19
12,ATATTCACGTGGCAGT,0.12
13,AGGGGCACGTGTTGAG,-0.08
14,GATTGCACGTGTAGTA,0.13
15,AGGGTCACGTGTTGTT,0.16
16,AGTGGCACGTGCTTAG,-0.31
17,AGCGTCACGTGAGTTA,0.31
18,GGTAGCACGTGTGGTC,0.07
19,GTTTGCACGTGAGTTC,0.21
20,AAGGGCACGTGTTTGG,-0.03
21,AGGTTCACGTGTTGGA,0.2
22,GTGTCCACGTGTAGTT,0.12
23,CTTAACACGTGGGAGT,-0.03
24,GGTTGCACGTGCGCTT,0
25,TGGGGCACGTGGTGGG,-0.14
26,ATTAGCACGTGGGGAA,-0.21

row,Sequence,relative binding free energy [kcal/mol]
1,CGGCGCACGTGAGGTG,0.17
2,GTGGTCACGTGTATTG,0.12
3,TTTCACACGTGTTCTG,0.21
4,ATTTGCACGTGCGATT,0.05
5,AATCGCACGTGTGATT,0.1
6,TTGTGCACGTGGAGTA,-0.01
7,GGTGTCACGTGAGAGA,0.37
8,CTTGACACGTGGTTCG,0.1
9,ATAATCACGTGTTTGT,0.12
10,ATGTGCACGTGGGAGG,-0.2
11,AGTCGCACGTGGTTTA,-0.14
12,TTTAACACGTGAGGAT,0.13
13,TTTTGCACGTGCATCT,-0.08
14,TTGATCACGTGATGAT,0.47
15,GAGGACACGTGGGAGC,0.04
16,ATGTACACGTGGTCTT,0.02
17,CTTGTCACGTGTCTGG,0.12
18,TATTACACGTGTGGTA,0.06
19,GATGGCACGTGCCTGG,-0.06
20,TTTGTCACGTGTGCTT,0.18
21,GGTTACACGTGGGAGT,0.1
22,AAATTCACGTGTTTAA,0.19
23,TTTGTCACGTGGAGCT,0.18
24,GGGTTCACGTGGGCCG,0.14
25,GCGGTCACGTGTTTGT,0.13
26,GCGCGCACGTGTATGG,-0.01

row,Sequence,relative binding free energy [kcal/mol]
1,TCGAACACGTGGTGAG,0.13
2,TAGTGCACGTGGGCTT,-0.12
3,GTGTACACGTGAACGG,0.26
4,TGTTACACGTGTACTT,0.12
5,CAGCTCACGTGTGTGT,0.36
6,ATTTGCACGTGTCGAT,-0.05
7,TTTTTCACGTGGGTGT,0.24
8,GGGTACACGTGTTGGC,0.2
9,CCGGGCACGTGTGTAT,-0.01
10,TTTGGCACGTGTAGAC,-0.14
11,ATATGCACGTGCTTTT,-0.13
12,CTATTCACGTGATCGT,0.27
13,AAGTGCACGTGGTATG,-0.09
14,GGTTTCACGTGCCTTG,0.29
15,TTTATCACGTGAGCGA,0.23
16,GAGGGCACGTGTGGCG,0.03
17,TACGGCACGTGAAGTT,0.3
18,TTGTTCACGTGTGAAC,0.26
19,TCGGACACGTGTGTAT,-0.04
20,AAGAACACGTGGGTGG,0.02
21,GTATGCACGTGTGCAG,-0.05
22,ATCTGCACGTGGGGTA,-0.31
23,TTTAGCACGTGGTGCT,-0.28
24,TTTCTCACGTGGAAGT,0.22
25,GGGTGCACGTGTTTCA,0.03
26,GTAGGCACGTGACTTT,0.11

row,Sequence,relative binding free energy [kcal/mol]
1,GGGGACACGTGGCAGT,-0.06
2,ATGGGCACGTGGTACG,-0.22
3,AGAGACACGTGTGTGT,-0.02
4,GCTCGCACGTGGGTGT,-0.24
5,TGTGTCACGTGAATGC,0.36
6,TTCATCACGTGGTTTT,0.15
7,GTTAGCACGTGATTGT,0.15
8,AGTAGCACGTGCAGTT,-0.17
9,AATTCCACGTGAGGTG,0.25
10,GTGGGCACGTGGTTCG,-0.06
11,TTTTTCACGTGATAGC,0.33
12,GGATTCACGTGTTGTA,0.37
13,TAAGGCACGTGGATAT,-0.1
14,TTTGCCACGTGCTTGT,-0.17
15,TCTGACACGTGTGGTG,0.02
16,TGGGGCACGTGAGGCT,0.1
17,TTTAACACGTGATAAG,0.02
18,TATATCACGTGGGAAT,0.07
19,ATGTCCACGTGGTGGT,-0.07
20,CGTGTCACGTGTATTT,0.11
21,GGTGTCACGTGGTGGT,0.08
22,TTAACCACGTGTGATT,0.21
23,GGTCACACGTGGGTGG,0.05
24,AGGTGCACGTGTGGGA,0
25,AATTCCACGTGTGGGG,0.09
26,TGATACACGTGAGGCG,0.42

row,Sequence,relative binding free energy [kcal/mol]
1,TGGTTCACGTGTGCCT,0.28
2,AAGTGCACGTGTTTGT,-0.03
3,TATTTCACGTGTGTCG,0.34
4,CGGGGCACGTGGGGAC,-0.12
5,TATAGCACGTGATTTT,-0.01
6,GTGTGCACGTGCGCTT,-0.17
7,TTTGTCACGTGTTTAC,0.14
8,ATATCCACGTGTTGTT,-0.05
9,GGAGTCACGTGCTGGT,0
10,TATGTCACGTGTATAT,0.04
11,GTTTACACGTGAGGTC,0.44
12,TGGGGCACGTGGGATG,-0.15
13,TGGGTCACGTGTTGAT,0.06
14,AAACGCACGTGTTTGG,-0.02
15,AGATGCACGTGGTTAT,-0.1
16,GTATACACGTGGGTTG,-0.12
17,GTATGCACGTGTCGGC,0.21
18,CAGGGCACGTGTGGAG,-0.01
19,TCATGCACGTGGGGGC,0.01
20,ATTTTCACGTGATGTT,0.31
21,TGGTGCACGTGCTAGC,0.04
22,GTATGCACGTGGAATA,0.18
23,AGGTTCACGTGGTTGC,0.21
24,CGTGGCACGTGCGAGG,-0.09
25,TTGTTCACGTGTTCAC,0.27
26,ATTGACACGTGTGGTT,0.1

row,Sequence,relative binding free energy [kcal/mol]
1,GCTATCACGTGGAAGG,0.21
2,TTAGGCACGTGTGACT,0.1
3,AATTGCACGTGTAGAA,0.16
4,TGGGGCACGTGTAGTG,-0.02
5,CAGTTCACGTGTTGAT,0.18
6,TAGTCCACGTGGGGAG,-0.1
7,AGGTTCACGTGTTTCT,0.36
8,CGTATCACGTGGGCTT,-0.04
9,TGGTTCACGTGCTTGA,0.21
10,TTTCGCACGTGTTGTC,0.19
11,GGGACCACGTGACGGG,0.13
12,GGGCACACGTGTGGGC,0.04
13,GGTGACACGTGGGGGT,-0.09
14,AGCATCACGTGATGTT,0.3
15,GTGTTCACGTGGCACG,0.19
16,ATAGTCACGTGGTGCT,0.06
17,TCTTTCACGTGATGGC,0.41
18,ATTGTCACGTGGTTCG,0.13
19,GTACTCACGTGATGGT,0.49
20,GGTCACACGTGACGGG,0.15
21,TGTTGCACGTGAGCGC,0.19
22,TTGCTCACGTGTGAGA,0.42
23,TTTAGCACGTGTAGCA,-0.03
24,TGTGTCACGTGAAGAT,0.33
25,GGAAACACGTGAATGG,0.28
26,GTCGTCACGTGTGCGT,0.26

row,Sequence,relative binding free energy [kcal/mol]
1,GATGTCACGTGAGGAA,0.4
2,GTGATCACGTGAGTGC,0.21
3,GGGGACACGTGTTTCT,-0.04
4,TGTATCACGTGATGAT,0.24
5,ACGAGCACGTGGTGGA,-0.12
6,ATAAACACGTGTCGGT,0.03
7,CTTGGCACGTGTGGTT,0.11
8,CATTGCACGTGTTTGG,-0.02
9,TGTGTCACGTGTCAGA,0.13
10,GTGGACACGTGGGGGA,-0.18
11,TATTGCACGTGAAAGG,0.26
12,TCTATCACGTGGGCGT,0.04
13,AGTTGCACGTGGGATA,-0.07
14,TTACACACGTGGCGGT,-0.02
15,TTGTGCACGTGTGAAA,0.1
16,TGGATCACGTGGAATG,0.16
17,TATCTCACGTGTGGTA,0.3
18,GTGGGCACGTGTCCGT,-0.04
19,CCGGCCACGTGTGGTG,-0.06
20,GAGATCACGTGTCAGG,0.33
21,TTATTCACGTGTTCGT,0.34
22,GGTGCCACGTGGGCGT,-0.09
23,TTGTTCACGTGGTGCC,0.3
24,TTGGACACGTGCGTCT,0.15
25,GATGGCACGTGGGTTC,-0.08
26,GGGGGCACGTGAGTAA,0.16

row,Sequence,relative binding free energy [kcal/mol]
1,GATTGCACGTGTGTGG,0.15
2,TATATCACGTGGTCTG,0.19
3,TTTTGCACGTGAACAG,0.17
4,GGCGTCACGTGAATTA,0.48
5,AGGGTCACGTGTTGGA,0.09
6,ATTTGCACGTGTGAGT,0.09
7,CTTTTCACGTGTGGTC,0.24
8,GATACCACGTGGGGTT,-0.08
9,TTAGTCACGTGCTGTG,0.02
10,TATTTCACGTGAGCGA,0.43
11,TGTGTCACGTGTTACA,0
12,ATTTACACGTGTTAGC,0.12
13,TGGTACACGTGGTGCT,-0.16
14,TCGGTCACGTGATGCG,0.23
15,GGTGGCACGTGAGTTG,0.29
16,ATCGGCACGTGGGAGT,-0.07
17,TTGGACACGTGGGTAA,0.01
18,TTAAGCACGTGGTGCA,-0.22
19,GGCTTCACGTGGATAG,0.36
20,AAAAACACGTGTTTGG,-0.07
21,GACGGCACGTGTGGGC,0.09
22,TGAGCCACGTGCGGTA,-0.08
23,AGGGCCACGTGGCGGT,-0.15
24,GATTTCACGTGGGGTT,0.34
25,TTAGGCACGTGTGTTA,-0.05
26,GAATTCACGTGTATGA,0.33

row,Sequence,relative binding free energy [kcal/mol]
1,CGTTGCACGTGGGCGC,-0.13
2,TGCATCACGTGTTGTT,0.2
3,GGTTACACGTGCGTGT,0.13
4,TGATGCACGTGCTTGG,-0.03
5,TCGTACACGTGTCTGG,0.12
6,TCGGGCACGTGGGTGT,-0.2
7,TTTTCCACGTGCGTGG,-0.05
8,AGCGTCACGTGAAGTA,0.31
9,TGGTGCACGTGCATGC,0
10,CGGGTCACGTGCTGGC,0.09
11,CGTGACACGTGTTGAG,-0.12
12,GGCGTCACGTGCGTGC,0.1
13,ATTCGCACGTGATGGG,0.08
14,GATGGCACGTGCAGGG,-0.14
15,GAGGTCACGTGTAGCG,0.25
16,GGTATCACGTGATTCG,0.18
17,TCGTTCACGTGGGGAT,0.26
18,TGTTCCACGTGTGGGG,0.08
19,GAAGGCACGTGAGGGT,0.23
20,ATTCGCACGTGTTTCT,0.06
21,TCCTGCACGTGTGGGG,0.05
22,GAGTACACGTGCGTTT,0.17
